# In PubChem BioAssay AID1508623 (National Center for Advancing Translational Sciences (NCATS), 2021):
# Screen size: about 48,000 compounds; about 450 (0.94%) were called active. Another 19% or so got no clear call; they are omitted. Calls follow the shape of the dose curve; as a rule, active = well fitted inhibition curve with a large enough effect; inconclusive = small, poorly fitted or top-dose-only effect; inactive = no such curve, though single readings can be large or run the other way. The list shows a part of the results.
# Test: Primary qHTS for Identification of Small Molecule Inhibitors of Huntingtin Promoter Activity; also: nearly all actives have a fitted effect of over 50% in size
# Settings: HEK293 HTT promoter firefly luciferase reporter (activity 0% = vehicle and -100% = no light), 24 h; series mostly up to 57.5 µM; activity change, negative = inhibition: at the top concentration
# Procedure, shortened: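 Quantitative HTS used concentration series of up to 57.5 uM final on HEK293 luciferase reporter cells, 24 h at 37 degrees C. Readout was Dual-Glo firefly luminescence.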
row,Structure (SMILES),"activity change, negative = inhibition"
1,Cc1ccccc1Nc1sc(C(=O)c2ccccc2)c(N)c1S(C)(=O)=O,inactive: -27.5%
2,Cc1cc(NC(=O)CSc2nc(-c3cccc(F)c3)nc3c2c(=O)n(C)c(=O)n3C)no1,inactive: -12.1%
3,CCc1ccc(NC(=O)Cn2c(=O)n(CCCC(=O)NCc3ccccc3Cl)c(=O)c3ccccc32)cc1,inactive: -4.72%
4,CCOC(=O)c1ccc(N2CC3=C(C2=O)C(c2ccc(OC)cc2)NC(=O)N3C)cc1 (stereo unspecified),inactive: -13.2%
5,COc1ccc2c(Sc3ccc(C)cc3)c(C(=O)NCC(C)c3ccccc3)[nH]c2c1 (stereo unspecified),inactive: -4.98%
6,COc1ccc(N(CC(=O)N2CCN(c3ccccc3F)CC2)S(=O)(=O)c2c(C)noc2C)cc1,inactive: -9.03%
7,Cc1ccc(CNC(=O)c2cc3c(=O)oc4ccc(C)cc4c3s2)cc1,inactive: -5.58%
8,CN1CCc2cccc3c2[C@H]1Cc1ccc(O)c(O)c1-3,inactive: -2.71%
9,CCCNC(=O)Cn1nc(-c2ccc(C)c(C)c2)c2cnc3ccc(OC)cc3c21,inactive: -12%
10,COc1ccccc1NC(=O)Cn1cnc2ccc(S(=O)(=O)N3CCC(C)CC3)cc2c1=O,inactive: -16.1%
11,C[C@H](NC(=O)Cc1cc(F)cc(F)c1)C(=O)N[C@H](C(=O)OC(C)(C)C)c1ccccc1,inactive: -8.15%
12,COc1ccc(NC(=O)Cn2c(=O)n(Cc3ccco3)c(=O)c3sc4ccccc4c32)c(OC)c1,inactive: -28.1%
13,CCOC(=O)c1ccc(OC(=O)c2cn(-c3ccc(C)cc3)c(=O)c3ccccc23)cc1,inactive: -10.2%
14,Cc1nn(-c2ccccc2)c(-n2cccc2)c1C(=O)N1CCN(c2ccccc2)CC1,inactive: -19%
15,COCCCN1C(=O)c2[nH]nc(-c3cc(C)ccc3O)c2C1c1ccc(F)cc1 (stereo unspecified),inactive: -25.3%
16,Cc1ccccc1NC(=O)C(Cc1ccccc1)N1Cc2ccccc2C1=O (stereo unspecified),inactive: -15.4%
17,COc1ccc(CNCCC(c2ccc(C)cc2)c2ccco2)cc1 (stereo unspecified),inactive: -28%
18,Cc1cccc(OCC(=O)Nc2ccc(S(=O)(=O)Nc3onc(C)c3C)cc2)c1C,inactive: -8.18%
19,Cc1ccc2oc(=O)c3cc(C(=O)Nc4ccc(C)c(F)c4)sc3c2c1,inactive: 1.3%
20,CCc1nnc(NC(=O)CSc2nc3c([nH]c4ccccc43)c(=O)n2-c2ccc(F)cc2)s1,inactive: -13.4%
21,COc1ccccc1/C=C/c1onc(C)c1S(=O)(=O)N1CCC(C(=O)N2CCC(C)CC2)CC1,inactive: -3.88%
22,Cc1cccn2c(=O)cc(COc3ccc(NC(=O)C(C)C)cc3)nc12,inactive: -11.3%
23,Cc1ccc(-n2nc(C)c3c(C)cc(=O)n(CC(=O)Nc4cc(Cl)ccc4C)c32)cc1,inactive: -23.5%
24,Nc1ccc2oc(-c3ccccc3Br)nc2c1,inactive: -16.7%

row,Structure (SMILES),"activity change, negative = inhibition"
1,COc1ccc(C(=O)NCc2nc(-c3cccc(C)c3)no2)cc1OC,inactive: -18.1%
2,Cc1nc(-c2ccc(S(=O)(=O)NCc3ccc(F)cc3)cc2)co1,inactive: -28.9%
3,COc1cccc(C(=O)COC(=O)c2cc(-c3cccs3)nc3ccccc23)c1,inactive: -19.7%
4,Cc1cc(NS(=O)(=O)c2cn(C)c(C)n2)ccc1Br,inactive: 5.08%
5,COc1cccc(CNC(=O)CCc2c(C)nc3c4c(C)cc(C)nc4nn3c2C)c1,inactive: -7.82%
6,Cc1ccccc1OCC(=O)Nc1nnc(SCc2cc(=O)n3cc(Cl)ccc3n2)s1,inactive: 5.28%
7,Cc1ccc(C)c(CN2C(=O)c3ccccc3S(=O)(=O)c3ccc(C(=O)NCCc4ccc(Cl)cc4)cc32)c1,inactive: -12.9%
8,CCc1ccccc1NC(=O)C1CCN(c2nc3ccccc3[nH]2)CC1,inactive: 8.15%
9,Cc1ccc(CCNc2nc3ccccc3c3nc(-c4cccnc4)nn23)cc1,inactive: -2.02%
10,CC(C)CCSc1nnc2n(-c3ccccc3)c(=O)c3c4c(sc3n12)CC(C)CC4 (stereo unspecified),inactive: -12.3%
11,CCOC(=O)c1c(C)[nH]c(C)c1S(=O)(=O)NCC(=O)NCc1cccc(Br)c1,inactive: -21.7%
12,CCc1ccc(NC(=O)Cn2c(=O)nc(-c3ccccc3F)c3cc(Cl)ccc32)cc1,inactive: 23.4%
13,COC(=O)c1ccccc1N(C)S(=O)(=O)c1cc2c3c(c1)CC(=O)N3CCC2,inactive: -7.88%
14,Cc1ccc2cc3cc(C(=O)N4CCN(c5ccccc5)CC4)sc3nc2c1,inactive: 13.2%
15,O=C(Cn1cc(S(=O)(=O)Cc2cccc(Cl)c2)c2ccccc21)NCc1ccccc1Cl,inactive: -28.4%
16,CCCNc1ncnc2c1c(-c1ccccc1)cn2-c1ccccc1,inactive: -26.8%
17,CCn1cc(C(=O)N2CCN(c3cccc(C)c3)C(C)C2)c(=O)c2cc(S(=O)(=O)N3CCOCC3)ccc21 (stereo unspecified),inactive: -4.58%
18,COc1ccc(-c2nsc(NC(=O)c3oc4ccccc4c3C)n2)cc1,inactive: 7.15%
19,Cc1coc2c(C)c3oc(=O)c(CCC(=O)N4CCCCC4)c(C)c3cc12,inactive: -22.7%
20,CN(C)c1ccc(CNC(=O)CCCN2C(=O)CCn3nc(-c4cn(C)c5ccccc45)cc32)cc1,inactive: -9.31%
21,C[C@]12CC[C@@H]3c4ccc(O)cc4CC[C@H]3[C@@H]1CC[C@@H]2OC(=O)CCC1CCCC1,inactive: 10.2%
22,COCCn1c(C)cc(O)c(C(c2ccccc2Cl)N2CCCCC2)c1=O (stereo unspecified),inactive: -12.7%
23,CNc1nccc(-c2cccnc2Oc2cc(C(=O)Nc3cccc(C(F)(F)F)c3)ccc2C)n1,inactive: -28.5%
24,CCCN1CCN(CCCNC(=O)c2cc3c(s2)-c2ccccc2OC3)CC1,inactive: -10.6%

row,Structure (SMILES),"activity change, negative = inhibition"
1,Cc1c(NS(=O)(=O)c2ccc(Cl)cc2)c(=O)n(-c2ccccc2)n1C,inactive: -5.43%
2,Cc1nc2c(c(C)c1CCC(=O)Nc1ccc(F)cc1)c(=O)n(C)c(=O)n2C,inactive: -16.7%
3,COc1ccc(C2=NN(CCC(=O)NCCc3ccccc3)C(=O)CC2)cc1,inactive: -5.31%
4,COCCn1c(C)cc(O)c(C(c2ccccc2F)N2CCN(c3ccccc3)CC2)c1=O (stereo unspecified),inactive: -2.16%
5,COc1ccc(NC(=O)Cn2nnc(-c3nc(-c4ccncc4)no3)c2N)cc1OC,inactive: 3.02%
6,Cc1cccc(C)c1NC(=O)C1CCCN1S(=O)(=O)c1cccc2nsnc12 (stereo unspecified),inactive: -15.6%
7,Cc1ccc(NC(=O)c2cccc(NC(=O)N3CCSc4ncccc43)c2)cc1F,inactive: 1.56%
8,CCOc1ccc(CNC(=O)c2ccc(NC(=O)N3CCSc4ncccc43)cc2)cc1,inactive: -27%
9,CCCN1C(=O)c2oc3cc(C)cc(C)c3c(=O)c2C1c1ccc(F)cc1 (stereo unspecified),inactive: -21.1%
10,CCN(CC)CCCNC(=O)CCc1c(C)nc2c(c1C)c(=O)n(C)c(=O)n2C,inactive: -8.53%
11,COc1ccc(-c2cc(C(F)(F)F)nc(SCC(=O)Nc3ccc(O)cc3)n2)cc1OC,inactive: -3.64%
12,Cc1ccc(C)c(NC(=O)c2cnc3sc(N4CCOCC4)nn3c2=O)c1,inactive: 9.53%
13,CCCCOCCOC(=O)c1cccnc1,inactive: 11.1%
14,Cc1cc(=O)c2cc(C(=O)Nc3cccc(C)c3C)ccc2[nH]1,inactive: -23.3%
15,COc1ccc(-c2nc3cc(NC(=O)COc4ccc(C)c(C)c4)ccc3o2)cc1,inactive: 53.6%
16,COc1cc(OC)c(NC(=O)CCc2c(C)nc3ncnn3c2C)cc1Cl,inactive: 2.23%
17,CN(Cc1ccccc1)c1ccc(-c2nc(-c3ccccn3)no2)cc1[N+](=O)[O-],inactive: -8.36%
18,COc1cccc(N2CCN(C(=O)c3cc4cc5cc(C)ccc5nc4s3)CC2)c1,inactive: 20.3%
19,CCC(=O)N1c2ccccc2CC1C(=O)NCc1ccccc1Cl (stereo unspecified),inactive: 0.454%
20,Cc1cccc(NC(=O)CCn2cnnn2)c1C,inactive: 12.9%
21,Cc1cccc(NC(=O)Cn2cc(C(=O)c3ccco3)c3ccccc32)c1,inactive: -22.3%
22,Cc1ccc(CNC(=O)c2ccc(Cn3c(=O)c4ccccc4n(CC(=O)Nc4ccc(C)cc4)c3=O)cc2)cc1,inactive: -8.77%
23,COc1ccc(Cn2cc(S(=O)(=O)c3ccc(Cl)cc3)c(=O)c3cc4c(cc32)OCO4)cc1,inactive: -27.6%
24,O=C(NC1(C(F)(F)F)C(=O)Nc2c1c(=O)[nH]c(=O)n2-c1ccc(Cl)cc1)c1ccccc1F (stereo unspecified),inactive: 1.63%

row,Structure (SMILES),"activity change, negative = inhibition"
1,O=C(Nc1ccc2oc(-c3ccncc3)nc2c1)c1ccccc1Cl,inactive: -18%
2,Cc1oc(-c2ccc(Cl)cc2)nc1CSc1nc2ncccc2[nH]1,inactive: -27.6%
3,CCc1ccccc1Nc1nn2c(=O)c3ccc(C(=O)NCCCOC(C)C)cc3nc2s1,inactive: -31.5%
4,O=C(OCc1cc(=O)n2nc(C3CCCCC3)sc2n1)c1ccc(F)cc1,inactive: -5.46%
5,CCOc1ccc(NC(=O)c2sc3nc4c(c(-c5ccc(OC)cc5)c3c2N)C(=O)CC(C)(C)C4)cc1,inactive: -3.71%
6,CCOc1ccc(-n2cc(-c3ccccc3)c3c(N4CCN(c5ccccc5OC)CC4)ncnc32)cc1,inactive: -12.2%
7,COC(=O)c1c(NC(=O)/C(C#N)=C/c2ccccc2)sc2c1CCC2,inactive: -14.7%
8,COc1ccc(-c2noc(-c3cccnc3N3CCN(c4ccc(OC)cc4)CC3)n2)cc1,inactive: 18.2%
9,CCCCN(CC)C(=O)CSc1c2c(nc3ccc(Cl)cc13)CCCC2,inactive: -21.7%
10,CCOC(=O)c1c(C)[nH]c(C)c1S(=O)(=O)N1CCCC(C(=O)NCc2ccc(Cl)cc2)C1 (stereo unspecified),inactive: -20.4%
11,CCOCCCNC(=O)CN1C(=O)COc2ccc(S(=O)(=O)N3CCCC3)cc21,inactive: -7.67%
12,COc1ccccc1Nc1cc(C(=O)NC2CCC(C)CC2)c2ccccc2n1 (stereo unspecified),inactive: -5.78%
13,CCN(C(=O)Nc1cn(CC(C)C)c(=O)c2ccccc12)c1cc(C)ccc1C,inactive: -20.6%
14,Cc1ccc(CNC(=O)CCn2cnc3ccccc3c2=O)cc1,inactive: 3.34%
15,Cc1ccc2nc(Nc3ccc(C)c(F)c3)c3nncn3c2c1,inactive: 5.86%
16,Cc1c(Cl)cccc1NC(=O)C1CCN(c2ncnc3c2nc2n3CCCCC2)CC1,inactive: -2.58%
17,CCn1nc(C)c(CCN(C)C(=O)Nc2cc(OC)c(OC)c(OC)c2)c1C,inactive: -0.762%
18,O=C(CS(=O)Cc1ccco1)NCC=CCOc1cc(CN2CCCCC2)ccn1 (stereo unspecified),inactive: 37.5%
19,Cc1ccc(N2CC(NC(=O)c3ccc(S(=O)(=O)N4CCOCC4)cc3)CC2=O)cc1 (stereo unspecified),inactive: -30.5%
20,CCOC(=O)c1cnn(-c2ccc(C(=O)Nc3cccc(C(C)=O)c3)cc2)c1N,inactive: -10.2%
21,COc1ccc2cc(C(=O)NCc3ccc4c(c3)CCN4C(=O)c3ccc(F)cc3)[nH]c2c1,inactive: -23%
22,O=C(CCn1c(=O)c2cccn2c2cccnc21)N1CCN(c2ccccc2F)CC1,inactive: -4.74%
23,Fc1cccc(-c2nnn3c2nc(NCCc2ccccc2)c2ccccc23)c1,inactive: -6.44%
24,Cc1cccc(OCC(=O)Nc2ccc(-c3nc4ccccc4o3)cc2)c1C,inactive: 14.6%
